{"source": "PubChem BioAssay AID686971", "about": "(National Center for Advancing Translational Sciences (NCATS), 2013)", "note": "In all, about 360,000 compounds went through this assay and about 7,500 (2.1%) were called active. This list was built around the results that the source calls inconclusive (neither active nor inactive); the mix of calls is not that of the screen. Calls come from the whole dose curve; as a rule, active = well fitted cell-killing curve with a large enough effect; inconclusive = small, poorly fitted or top-dose-only effect, or effect the other way, or another doubt; inactive = no such curve, though single readings can be large or run the other way. No potency is given beside an inconclusive call; the fits are too rough. Potency is the fitted concentration of half-maximal effect; tags give direction and shape of the fitted curve.", "data": [{"assay": "qHTS for induction of synthetic lethality in tumor cells producing 2HG: qHTS for the HT-1080-IDH1KD cell line;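 for activity, negative = toxicity: 0% = DMSO wells and -100% = cell-free medium wells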", "settings": "HT-1080 IDH1 knockdown viability, ATP luminescence, 48 h; activity, negative = toxicity: at 46.1 µM (top of the series) unless noted", "procedure,_shortened": "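Using the IDH1-knockdown HT-1080 line run in the same batch and compound series as the NT line, viability after 48 h at 37 °C was determined by CellTiter-Glo luminescence and expressed as % activity.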", "values": [{"smiles": "CCOC(=O)c1ncn2c1CN(C)C(=O)c1cc(F)ccc1-2", "Potency": "inconclusive [rising, full curve]"}, {"smiles": "CCCCCn1c(N)c(C(=O)NCc2cccs2)c2nc3ccccc3nc21", "Potency": "inconclusive [cytotoxic, single point]"}, {"smiles": "O=[N+]([O-])c1ccccc1-c1cc(-c2ccccc2)cc(-c2ccccc2)[n+]1Cc1ccccc1Cl", "Potency": "active: 10.3 µM"}, {"smiles": "Cn1c(CN2CCCCC2)nc2cc(NC(=O)c3cccc(Br)c3)ccc21", "Potency": "inconclusive [cytotoxic, single point]"}, {"smiles": "COC(=O)C1=C(c2ccc(-c3ccccc3)c(F)c2)C[C@@H]2CC[C@H]1N2C(=O)NCc1ccc(F)cc1", "Potency": "inconclusive [cytotoxic, single point]"}, {"smiles": "COC(=O)C1=C(c2cccc(OC)c2OC)C[C@@H]2CC[C@H]1N2C(=O)NCC1CC1", "activity, negative = toxicity": "inactive: 10.4%"}, {"smiles": "Oc1ccc(-[n+]2c(-c3ccccc3)cc(-c3ccccc3)cc2-c2ccccc2)cc1", "Potency": "active: 20.6 µM"}, {"smiles": "CC(C)(C)C(=O)O[C@H]1CC[C@@]2(C)C(=CC(=O)C3C2CC[C@]2(C)C(=O)[C@H](O)CC32)C1", "note": "(stereo not given in full)", "activity, negative = toxicity": "inconclusive: -32.1% [cytotoxic]"}, {"smiles": "CC[C@H](C)[C@@H]1NC(=O)CNC(=O)c2csc(n2)[C@H](C(C)(C)O)OC(=O)C(C)(C)[C@H](CCCC(C)(Cl)Cl)OC(=O)c2csc1n2", "Potency": "active: 0.0731 µM"}, {"smiles": "Cc1cccc(NP(=O)(Oc2ccccc2F)Oc2ccccc2F)c1", "Potency": "inconclusive [cytotoxic, single point]"}, {"smiles": "CCN(c1cccc(C)c1)S(=O)(=O)c1ccc2c(c1)oc(=O)n2C", "Potency": "inconclusive [cytotoxic, single point]"}, {"smiles": "CC(=O)Nc1ccccc1C(=O)OCC(=O)c1ccc2ccccc2c1", "activity, negative = toxicity": "inactive: -20.7%"}, {"smiles": "c1ccc(-c2cc(-c3ccccc3)[n+](-c3ccccc3)c(-c3ccccc3)c2)cc1", "Potency": "active: 5.8 µM"}, {"smiles": "CS(=O)(=O)Nc1ccccc1C(=O)Nc1cc(Cl)cc(Cl)c1", "Potency": "active: 11.2 µM"}, {"smiles": "O=C1NCN(c2ccccc2)C12CCN(C(c1cccs1)c1nnnn1-c1ccc3c(c1)OCCO3)CC2", "note": "(stereo not given)", "Potency": "inconclusive [cytotoxic, single point]"}, {"smiles": "CC(C)N(C(=O)CCl)c1ccccc1", "Potency": "inconclusive [cytotoxic, single point]"}, {"smiles": "NC(=O)CSP(=O)(c1ccccc1)c1ccccc1", "activity, negative = toxicity": "inactive: -20.7%"}, {"smiles": "CC1=Nc2ccccc2/C1=C/c1c(O)n(C)c(=O)[nH]c1=O", "activity, negative = toxicity": "inactive: 2.65%"}, {"smiles": "COc1cccc(O)c1CN1CCCC(C(=O)c2ccccc2SC)C1", "note": "(stereo not given)", "Potency": "inconclusive [cytotoxic, partial curve, poor fit]"}, {"smiles": "Cc1ccc2nc(N3CCN(C)CC3)[nH]c2c1", "activity, negative = toxicity": "inactive: -4.91%"}, {"smiles": "c1cc2n(c1)-c1c(ccc3c1OCO3)CNC2c1ccc2c(c1)OCO2", "note": "(stereo not given)", "Potency": "inconclusive [cytotoxic, partial curve]"}, {"smiles": "CCCOC(=O)COc1cc(C)cc2oc(=O)c3c(c12)CCC3", "activity, negative = toxicity": "inactive: 2.71%"}, {"smiles": "O=c1[nH]c(N2CCN(Cc3ccc4c(c3)OCO4)CC2)nc2c1CCC2", "activity, negative = toxicity": "inactive: -12.1%"}, {"smiles": "Cc1ccc(CN(Cc2ccccc2)C(=S)NCC(=O)N2CCC3(CC2)OCCO3)o1", "activity, negative = toxicity": "inactive: -0.955%"}, {"smiles": "O=C(O)C1C2CCC(O2)C1C(=O)NC1CCCCC1", "note": "(stereo not given)", "Potency": "inconclusive [cytotoxic, partial curve]"}, {"smiles": "CC12CCC3c4ccc(OC(=O)N(CCCl)CCCl)cc4CCC3C1CCC2O", "note": "(stereo not given)", "Potency": "inconclusive [cytotoxic, single point]"}, {"smiles": "c1ccc2c(N3CCNCC3)cccc2c1", "Potency": "inconclusive [cytotoxic, single point]"}, {"smiles": "CCCCCCN=C(CC)c1c(O)n(CCCC)c(=O)[nH]c1=O", "Potency": "inconclusive [cytotoxic, single point]"}, {"smiles": "O=C1C=C2C=C[C@@H]3CC2(O1)[C@H]1CCCCN31", "Potency": "inconclusive [cytotoxic, partial curve]"}, {"smiles": "C1=CC(Cc2cncs2)c2ccccc21", "note": "(stereo not given)", "activity, negative = toxicity": "inactive: 10.3%"}, {"smiles": "C=CCN=c1sc(C(=O)OC)cc(=O)n1CC=C", "Potency": "inconclusive [cytotoxic, single point]"}, {"smiles": "O=C(Nc1cccc(Br)c1)Oc1cccc2cccnc12", "Potency": "inconclusive [cytotoxic, single point]"}, {"smiles": "O=C(N/N=C/c1c(O)n(CCC2=CCCCC2)c(=O)[nH]c1=O)c1ccccc1", "Potency": "inconclusive [cytotoxic, partial curve]"}, {"smiles": "C/C(=N\\Nc1ccccc1)c1c(O)n(Cc2ccccc2)c(=O)[nH]c1=O", "activity, negative = toxicity": "inconclusive: -30.2% [cytotoxic]"}, {"smiles": "c1cc2c(cc1N1CCCCC1)C1CC2CCN1", "note": "(stereo not given)", "activity, negative = toxicity": "inactive: 1.27%"}, {"smiles": "COc1ccc(-n2c(O)c(C=NCc3ccc4c(c3)OCO4)c(=O)[nH]c2=O)cc1", "activity, negative = toxicity": "inactive: 10.7%"}, {"smiles": "CCN1CC2C3CCC(C)(O3)C2C1", "note": "(stereo not given)", "activity, negative = toxicity": "inactive: 13%"}, {"smiles": "Cc1c(N=Nc2c(O)n(-c3ccc(Br)cc3)c(=O)[nH]c2=O)c(=O)n(-c2ccccc2)n1C", "Potency": "inconclusive [cytotoxic, single point]"}, {"smiles": "CC(C)C(NC(=O)C(C(C)C)N(C)C)C(=O)N(C)C(C(=O)N1CCCC1C(=O)N1CCCC1C(=O)NCc1ccccc1)C(C)C", "note": "(stereo not given)", "Potency": "inconclusive [cytotoxic, full curve, poor fit]"}, {"smiles": "O=c1[nH]c2ccccc2n1C1CCN(C(c2ccnc3ccccc23)c2nnnn2-c2ccc3c(c2)OCCO3)CC1", "note": "(stereo not given)", "Potency": "active: 16.4 µM"}, {"smiles": "COC(=O)C1=Nc2ccccc2/C1=C\\c1c(O)n(-c2ccc(OC)cc2)c(=O)[nH]c1=O", "Potency": "inconclusive [cytotoxic, single point]"}, {"smiles": "CC1=C(O)C(=O)C=C2C1=CC=C1C2(C)CCC2(C)C3CC(C)(C(=O)O)CCC3(C)CCC12C", "note": "(stereo not given)", "Potency": "active: 1.64 µM"}, {"smiles": "COCCCn1c(N)c(C(=O)Nc2ccccc2)c2nc3ccccc3nc21", "Potency": "inconclusive [cytotoxic, single point]"}, {"smiles": "Clc1cccc(CNCCc2c[nH]c3ccccc23)c1", "Potency": "active: 16.4 µM"}, {"smiles": "O=C(CN1CCN(CC(=O)Nc2ccc(OCc3ccccc3)cc2)CC1)Nc1ccc(F)cc1", "Potency": "inconclusive [cytotoxic, single point]"}]}]}
